Inconclusive results and toxic doses are left out. Not every entry of the source has a single result; some have several. The list is limited to them. The source may hold further records. Results that share an entry are repeats (runs, samples, wells, individuals or studies).
Tested on: B6C3F1 mice, ip Sarcoma M5076, median survival T/C
Test: NCI In Vivo Anticancer Drug Screen. Data for tumor model Sarcoma M5076 (intraperitoneal) in B6C3F1 mice
Conditions: endpoint: median survival time, schedule: Q04DX004 (ip), higher = longer survival
Description: The antitumor activity of compounds was measured in mice bearing transplantable tumors. Survival or tumor size were measured and the results are expressed as the measurement made in the treated group (T) divided by the measurement made in the vehicle treated control group (C). The tumor model used in this assay is Sarcoma M5076 (intraperitoneal) in B6C3F1 mice

[1] = dose: 1.25 mg/kg/injection, vehicle: Klucel (hydroxypropylcellulose) (HPC)

CC(C)NC(=O)OCc1c(COC(=O)NC(C)C)c(-c2ccc(Cl)c(Cl)c2)n2c1CCC2
T/C (dose: 300.0 mg/kg/injection, vehicle: saline with Tween-80): 91 % of control and 196 % of control

COc1c(O)cc2c(c1OC)-c1ccc(SC)c(=O)cc1C(NC(C)=O)CC2 (stereo unspecified)
T/C [1]: 120 % of control and 151 % of control
T/C (dose: 2.5 mg/kg/injection, vehicle: Klucel (hydroxypropylcellulose) (HPC)): 118 % of control and 181 % of control

CN(C)CCNc1ccc(CO)c2sc3ccc(O)cc3c(=O)c12
T/C (dose: 200.0 mg/kg/injection, vehicle: saline with Tween-80): 112 % of control and 170 % of control

Cc1cc2c(C(C)C)c(O)c(O)c(C=NCCO)c2c(O)c1-c1c(C)cc2c(C(C)C)c(O)c(O)c(C=NCCO)c2c1O
T/C (dose: 144.0 mg/kg/injection, vehicle: saline with Tween-80): 121 % of control and 160 % of control

CN(C)N=Nc1ccc(C(=O)O)cc1
T/C (dose: 200.0 mg/kg/injection, vehicle: saline): 94 % of control, 196 % of control, 200 % of control

BrC[P+](CBr)(CBr)CBr
T/C (dose: 31.25 mg/kg/injection, vehicle: saline with Tween-80): 120 % of control and 154 % of control

CNC(=S)SC1=NS(=O)(=O)c2ccccc2N1
T/C (dose: 288.0 mg/kg/injection, vehicle: Klucel (hydroxypropylcellulose) (HPC)): 109 % of control and 160 % of control

Cc1cccc(OCC(O)CN2CC2)c1 (stereo unspecified)
T/C (dose: 100.0 mg/kg/injection, vehicle: saline with Tween-80): 111 % of control, 114 % of control, 153 % of control

C=C1C(O)C2(O)OCC34C(CC5C(C)=CC(=O)C(O)C5(C)C23)OC(=O)C(OC(=O)C/C=C(\C)CCCCC)C14 (stereo unspecified)
T/C (dose: 8.0 mg/kg/injection, vehicle: saline + alcohol): 122 % of control and 164 % of control

C=C1COC(O)(C2OCOC(C3CC(=O)NC(=O)C3)C2O)C1C (stereo unspecified)
T/C (dose: 32.0 micrograms/kg/injection, vehicle: water): 114 % of control, 153 % of control, 170 % of control

CCN(CC)CCn1[nH]c2c3ccc(=O)cc3sc3c(NCCN)ccc1c32
T/C (dose: 25.0 mg/kg/injection, vehicle: water): 89 % of control, 173 % of control, 286 % of control

CCOC(=O)NC1CCc2cc(OC)c(OC)c(OC)c2-c2ccc(OC)c(=O)cc21 (stereo unspecified)
T/C [1]: 123 % of control and 153 % of control

O=C1N[C@@H]2C(=C[C@H](O)[C@@H](O)[C@H]2O)c2cc3c(c(O)c21)OCO3
T/C (dose: 6.0 mg/kg/injection, vehicle: saline with Tween-80): 116 % of control, 159 % of control, 160 % of control

CC1(CO)C(O)CCC2(C)C1CCC1CC3CC12CCC3(O)CO (stereo unspecified)
T/C (dose: 240.0 mg/kg/injection, vehicle: Klucel (hydroxypropylcellulose) (HPC)): 124 % of control and 161 % of control

COc1cc(C2c3cc4c(cc3[C@@H](OC3OC5CO[C@@H](C)OC5C(O)C3O)[C@H]3COC(=O)C23)OCO4)cc(OC)c1OC (stereo partly specified)
T/C (dose: 400.0 mg/kg/injection, vehicle: suspension in saline): 116 % of control and 176 % of control

Reference: PubChem BioAssay AID292 (DTP/NCI, 2004)
